The results in this text go back to PubChem BioAssay AID1963576 (National Center for Advancing Translational Sciences (NCATS), 2024).

Screen size: about 46,000 compounds; about 60 (0.1%) were called active. Another 3% or so got no clear call; they are omitted. The call rests on the fitted dose curve; in most records, active means well fitted inhibition curve with a large enough effect; inconclusive means small, poorly fitted or top-dose-only effect; inactive means no such curve, though single readings can be large or run the other way. The list shows a part of the results.

The assay in a line: Primary qHTS assay for Inhibitors of ovarian cancer metastasis using an organotypic tumor microenvironment (TME) model. Further: nearly all actives have a fitted effect of over 65% in size.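 On activity change, negative = inhibition: plate controls were DMSO wells for no effect and tomatine positive control wells for full effect.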 Conditions: SKOV3ip1-GFP adhesion/invasion on 3D omental model, fluorescence; series mostly up to 45.8 µM; activity change, negative = inhibition: at the top concentration. Put shortly:
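Primary human omental fibroblast/mesothelial 3D culture pre-formed 48 h. SKOV3ip1-GFP cells added with compounds (0.36-46 umol/L), incubated 2 h RT/16 h 37 C, fixed; GFP cells quantified at 488/509 nm.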
As for `COc1cc(NC(=O)C(Cc2ccccc2)NS(=O)(=O)c2cccs2)cc(OC)c1` (stereo not given), the “activity change, negative = inhibition” value was inactive: 14.5%.
For the compound `O=C(CS(=O)(=O)c1cccc2nsnc12)NCc1ccccc1`, the “activity change, negative = inhibition” value is inactive: -0.836%.
Turning to `COc1cc(OC)c(NC2=C(c3ccc(C(F)(F)F)cc3)C(=O)c3ccccc32)cc1Cl`, the “activity change, negative = inhibition” value was inactive: -7.26%.
In the case of `O=C(Cn1c(=O)nc(-c2ccccc2)c2ccccc21)N1CCN(c2ccc(F)cc2)CC1`, the “activity change, negative = inhibition” value is inactive: -5.78%.
As to `O=C(O)CSc1nc2ccc(NC(=O)COc3ccc(Cl)cc3)cc2s1`, the “activity change, negative = inhibition” value is inactive: -13.4%.
As to `Cc1ccc(-n2c(=O)c3c(c4cc(C)ccc4n3C)n(CC(=O)c3ccc(Cl)cc3)c2=O)cc1`, the “activity change, negative = inhibition” value was inactive: 25.1%.
Turning to `OCCCn1c(-c2ccc(F)cc2)csc1=Nc1ccc(F)cc1`, the call was inactive.
On the same count and under the same terms, in the case of `CC(C)Oc1ccccc1NC(=O)CSc1nccn1C` it was “inactive”; in that of `COc1cccc(Cc2nc3ccccc3nc2SCC(=O)N2CCCc3ccccc32)c1`, “inactive”.
Consider `CCOc1cccc(C(=O)Nc2cc(C)c(O)c(-c3nc4ncccc4o3)c2)c1`, for which the “activity change, negative = inhibition” value is inactive: 3.82%.
Take `COC(=O)c1ccccc1NC(=O)c1nc(-c2ccc(Cl)cc2)n2c1CCCCC2`: the outcome was inactive.
As for `Cc1ccc2c(=O)c(C(=O)c3ccc(F)cc3)cn(CC(=O)Nc3ccc4c(c3)OCCO4)c2n1`, the “activity change, negative = inhibition” value is inactive: 2.35%.
Still for that read-out and setting: in the case of `Cc1ccc(NC(=O)c2ccc(CN3CC(=O)N4CCCCC4C3=O)cc2)c(C)c1` (stereo not given) it was inactive: 10.2%.
Turning to `COC(=O)c1ccc(NC(=O)CSc2nnc3c4ccccc4n(C(C)C)c3n2)cc1`, the compound was classed as inactive.
Turning to `Cc1c(NC(=O)C(C)(C)Oc2ccc(Cl)cc2)cccc1-c1nc2ccccc2o1`, the “activity change, negative = inhibition” value is inactive: -0.0792%.
On the same count and under the same terms, in the case of `O=C(c1ccc2c(c1)N(Cc1ccccc1)C(=O)c1ccccc1S2(=O)=O)N1CCc2ccccc21` it was inactive: -3.07%; in that of `COc1ccc(OC)c(-n2c3c(cc(-c4nc(-c5ccc(Cl)cc5)cs4)c2=O)C(=O)CC(C)(C)C3)c1`, inactive: 16.8%.
As to `CCCNC(=O)CN1C(=O)COc2ccc(S(=O)(=O)N3CCC(C)CC3)cc21`, the “activity change, negative = inhibition” value is inactive: -11.2%.
The same measure, in the same setting: in the case of `O=C(CSc1nccn1C1CCCC1)Nc1cc(C(F)(F)F)ccc1Cl` it was inactive: 3.26%.
Turning to `Cc1ccc(-c2nn(CC(=O)NCc3ccccc3)c3c2cnc2ccc(F)cc23)cc1C`, the result was inactive.
`CCOC(=O)c1c(NC(=O)c2cc(=O)c3cc(C)cc(C)c3o2)sc(C)c1C`: the “activity change, negative = inhibition” value is inactive: -3.27%.
Still for that read-out and setting: in the case of `O=S(=O)(c1ccc(Cl)cc1)c1nc(-c2ccco2)oc1SCc1ccccc1F` it was inactive: 3.89%; in that of `COC[C@H](NC(=O)c1cnc(C)s1)C(=O)N[C@@H](COC)C(=O)N[C@@H](Cc1ccccc1)C(=O)[C@@]1(C)CO1`, inactive: -9.36%; in that of `CN(C(=O)CSc1nnc(COc2ccccc2)o1)c1ccccc1`, inactive: -0.481%.
Consider `CCC(=O)N1CCc2cc(S(=O)(=O)NC(Cc3ccccc3)C(=O)Nc3ccccc3C)ccc21` (stereo not given), for which the “activity change, negative = inhibition” value is inactive: 0.812%.
Consider `COc1ccccc1CNC(=O)CSc1ccc(-c2sc(-c3ccccc3)nc2C)nn1`, for which the compound was called inactive.
Take `O=C(Nc1sc2c(c1C(=O)Nc1ccccc1)CCC2)c1ccc(Br)cc1`: the “activity change, negative = inhibition” value was inactive: 11.6%.
As for `CCOCCCNC(=O)C(c1ccccc1)N1Cc2ccccc2C1=O` (stereo not given), the “activity change, negative = inhibition” value is inactive: 7.76%.
Turning to `Cc1cccc(NC(=O)C(=O)NCC(c2ccc3c(c2)OCO3)N2CCN(c3ccccc3)CC2)c1` (stereo not given), the “activity change, negative = inhibition” value is inactive: 0.459%.
As to `CC(=O)c1cccc(NS(=O)(=O)c2cc3c(cc2C)n(C)c(=O)c(=O)n3C)c1`, the outcome was inactive.
On to `CCOc1ccc(OCC(=O)NCCS(=O)(=O)N2CCN(c3cccc(Cl)c3)CC2)cc1`, for which the “activity change, negative = inhibition” value is inactive: -10.6%.
With `Cc1cccc(NC(=O)N2CCC(N3CCN(Cc4ccccc4)C(=O)C3=O)CC2)c1C`, the “activity change, negative = inhibition” value is inactive: -1.44%.
The same measure, in the same setting: in the case of `CC(C)(C)C1CCc2onc(C(=O)Nc3sc4c(c3C#N)CCCC4)c2C1` (stereo not given) it was inactive: -9.26%; in that of `Cc1ccccc1N1CC(c2nnc(NC(=O)c3ccco3)s2)CC1=O` (stereo not given), inactive: 7.17%.
Still for that read-out and setting: for `CC(C)c1ccc(CNc2nc(-c3ccco3)nn2S(=O)(=O)c2ccc(F)cc2)cc1` the value was inactive: -3.67%.
With `Cc1cccc(N2CCN(Cc3cc(=O)oc4cc(C)ccc34)CC2C)c1` (stereo not given), the result was inactive.
For `CCCC1N=C2c3ccccc3N=C(SCC(=O)NCCc3ccc(Cl)cc3)N2C1=O` (stereo not given), the “activity change, negative = inhibition” value was inactive: 6.9%.
Same read-out and setting: for `CCCCNS(=O)(=O)c1ccc2nc(-c3cccnc3)cc(C(=O)NC(C)C)c2c1` the value was inactive: -15.8%.
With `O=C(CN1C(=O)c2cccc3cccc1c23)Nc1ccccc1Br`, the compound was classed as inactive.
Regarding `Cn1nc(C(=O)N2CCN(c3ccccc3F)CC2)c2c1-c1ccccc1S(=O)(=O)C2`, the “activity change, negative = inhibition” value was inactive: 1.04%.
Take `O=C(c1cc(-c2ccc(F)cc2)on1)N1CCN(c2ccc(F)cc2)CC1`: the “activity change, negative = inhibition” value was inactive: -1.16%.
Regarding `CC(C)NC(=O)c1ccc2c(c1)nc1n2CCCCC1`, the call was inactive.
Regarding `CCOC(=O)COc1ccc(C)cc1C(=O)c1ccn2nc(-c3ccc(Cl)cc3)cc2n1`, the “activity change, negative = inhibition” value was inactive: -0.459%.
For the compound `Cc1oc2ncnc(N3CCOCC3)c2c1C(=O)NCCc1ccccc1`, the “activity change, negative = inhibition” value was inactive: -1.23%.
On the same count and under the same terms, for `CCn1c(C(=O)Nc2ccc(C)cc2C)cc2sc(Cl)cc21` the value was inactive: -0.328%.
On the same count and under the same terms, in the case of `CCOC(=O)c1ccccc1NC(=O)c1cc2ccc3cccnc3c2[nH]1` it was inactive: 1.3%; in that of `CCCOC(=O)CSc1nnc(-c2ccccc2)o1`, inactive: -9.46%; in that of `CC1CCC(NC(=O)C2(C)Cc3ccccc3C(=O)N2Cc2ccc(Cl)cc2)CC1` (stereo not given), inactive: -5.71%.
Still for that read-out and setting: for `Cc1ccc(Nc2nc3ccc(C(=O)c4ccccc4)cc3n3c(C)nnc23)c(C)c1` the value was inactive: -0.642%; for `Cc1sc2ncn(CC(=O)N(C)c3ccc(C(C)C)cc3)c(=O)c2c1S(=O)(=O)N1CCC(C)CC1`, inactive: 4.22%.
`Cc1ccc(NS(=O)(=O)c2ccc3nc(-c4ccccc4)[nH]c3c2)c(Br)c1`: the “activity change, negative = inhibition” value was inactive: 2.77%.
On to `CCCCN(CC)CCCNC(=O)c1cn(CC)c2ccc(S(=O)(=O)N3CCc4ccccc4C3)cc2c1=O`, for which the “activity change, negative = inhibition” value was inactive: -19.4%.
Consider `O=C(/C=C/c1ccc(Cl)cc1)N1CCC(c2nc3ccccc3o2)CC1`, for which the call was inactive.
On the same count and under the same terms, for `CC(=O)c1cccc(NC(=O)CN2C(=O)CC(c3ccc(C)cc3C)=Nc3ccccc32)c1` the value was “inactive”.
As to `CCCn1c(=O)c2sccc2n2c(CCCC(=O)N3CCN(c4cccc(Cl)c4)CC3)nnc12`, the “activity change, negative = inhibition” value is inactive: -8.73%.
Regarding `Cc1ccc(C)c(N2CCN(S(=O)(=O)c3ccc(C(=O)N(C)C)s3)CC2)c1`, the result was inactive.
Take `O=C(Cn1cc(C(=O)c2ccccc2)c(=O)c2cc3c(cc21)OCCO3)Nc1ccc(F)c(F)c1`: the “activity change, negative = inhibition” value is inactive: -4.31%.
On the same count and under the same terms, for `COc1ccc(CCNC(=O)c2cc3c(=O)n(C)c4ccccc4c3s2)cc1OC` the value was inactive: -3.95%.
On the same count and under the same terms, in the case of `COc1ccc(CCNCc2c(C(=O)O)c(C)n(Cc3cccc(Cl)c3)c2C)c(OC)c1OC` it was inactive: 8.57%; in that of `CCc1ccccc1NC(=O)CCC(=O)N1CC(C)Oc2ccc(C)cc21` (stereo not given), inactive: -8.04%.
